# Some of the results follow.
# B1: MpL2 (Macrolepiota procera) (protein)
# chain: MSTQVSSGQTYKITNVKAGTVIDLSGEDNKSIIGYPYHSGKNQQWTFNWTGKAWTLRSASSGSYLGIEGTPADGTRLVAVNDPFEWHIWRDEANENAFRIFVPFTNYNLRLSGYGDTTPGTPVQLWWTWEGLHQTWTIDRP
# Key:
# Experiment in all cases: glycan array binding signal (z-score within array); higher = stronger binding
# Settings in all cases: glycan notation: IUPAC condensed, linker removed; mutation: D109R
# [1] = target: Neu5Ac(a2-3)Gal(b1-4)GlcNAc(b1-3)[Neu5Ac(a2-3)Gal(b1-4)GlcNAc(b1-6)]GalNAc
# Outline: (§1)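 The binding signal is a Z-score computed within each array and averaged over linkers. Arrays of the same protein sequence at different concentrations or buffers were also averaged together. Data originate from 3228 arrays in the Consortium for Functional Glycomics database, kept only where the protein sequence was available.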
# [2] = target: Neu5Ac(a2-3)Gal(b1-4)GlcNAc(b1-6)GalNAc
# Outline: as §1
# [3] = target: Neu5Ac(a2-3)Gal(b1-4)GlcNAc(b1-6)[Gal(b1-3)]GalNAc
# Outline: as §1
# [4] = target: Neu5Ac(a2-3)Gal(b1-4)GlcNAc(b1-6)[Neu5Ac(a2-3)Gal(b1-3)]GalNAc
# Outline: as §1
# [5] = target: Neu5Ac(a2-3)Gal(b1-4)GlcNAc6S
# Outline: as §1
# [6] = target: Neu5Ac(a2-3)Gal(b1-4)[Fuc(a1-3)]GlcNAc
# Outline: as §1
# [7] = target: Neu5Ac(a2-3)Gal(b1-4)[Fuc(a1-3)]GlcNAc(b1-2)Man
# Outline: as §1
# [8] = target: Neu5Ac(a2-3)Gal(b1-4)[Fuc(a1-3)]GlcNAc(b1-3)Gal
# Outline: as §1
# [9] = target: Neu5Ac(a2-3)Gal(b1-4)[Fuc(a1-3)]GlcNAc(b1-3)Gal(b1-4)GlcNAc
# Outline: as §1
# [10] = target: Neu5Ac(a2-3)Gal(b1-4)[Fuc(a1-3)]GlcNAc(b1-3)Gal(b1-4)[Fuc(a1-3)]GlcNAc(b1-3)Gal(b1-4)[Fuc(a1-3)]GlcNAc
# Outline: as §1
# [11] = target: Neu5Ac(a2-3)Gal(b1-4)[Fuc(a1-3)]GlcNAc(b1-3)GalNAc
# Outline: as §1
# [12] = target: Neu5Ac(a2-3)Gal(b1-4)[Fuc(a1-3)]GlcNAc(b1-6)[Gal(b1-3)]GalNAc
# Outline: as §1
# [13] = target: Neu5Ac(a2-3)Gal(b1-4)[Fuc(a1-3)]GlcNAc(b1-6)[Neu5Ac(a2-3)Gal(b1-3)]GalNAc
# Outline: as §1
# [14] = target: Neu5Ac(a2-3)Gal(b1-4)[Fuc(a1-3)]GlcNAc6S
# Outline: as §1
# [15] = target: Neu5Ac(a2-3)Gal6S(b1-4)GlcNAc
# Outline: as §1
# [16] = target: Neu5Ac(a2-3)Gal6S(b1-4)[Fuc(a1-3)]GlcNAc
# Outline: as §1
# [17] = target: Neu5Ac(a2-3)GalNAc
# Outline: as §1
# [18] = target: Neu5Ac(a2-3)GalNAc(b1-4)GlcNAc
# Outline: as §1
# [19] = target: Neu5Ac(a2-3)[GalNAc(b1-4)]Gal(b1-4)Glc
# Outline: as §1
# [20] = target: Neu5Ac(a2-3)[GalNAc(b1-4)]Gal(b1-4)GlcNAc
# Outline: as §1
# [21] = target: Neu5Ac(a2-3)[GalNAc(b1-4)]Gal(b1-4)GlcNAc(b1-3)GalNAc
# Outline: as §1
# [22] = target: Neu5Ac(a2-3)[Neu5Ac(a2-6)]GalNAc
# Outline: as §1
# [23] = target: Neu5Ac(a2-6)Gal
# Outline: as §1
# [24] = target: Neu5Ac(a2-6)Gal(b1-3)GlcNAc(b1-3)[Gal(b1-4)GlcNAc(b1-6)]Gal(b1-4)Glc
# Outline: as §1
# [25] = target: Neu5Ac(a2-6)Gal(b1-4)Glc
# Outline: as §1
# [26] = target: Neu5Ac(a2-6)Gal(b1-4)GlcNAc
# Outline: as §1
# [27] = target: Neu5Ac(a2-6)Gal(b1-4)GlcNAc(b1-2)Man
# Outline: as §1
# [28] = target: Neu5Ac(a2-6)Gal(b1-4)GlcNAc(b1-2)Man(a1-3)Man(b1-4)GlcNAc(b1-4)GlcNAc
# Outline: as §1
# [29] = target: Neu5Ac(a2-6)Gal(b1-4)GlcNAc(b1-2)Man(a1-3)[Gal(b1-4)GlcNAc(b1-2)Man(a1-6)]Man(b1-4)GlcNAc(b1-4)GlcNAc
# Outline: as §1
# [30] = target: Neu5Ac(a2-6)Gal(b1-4)GlcNAc(b1-2)Man(a1-3)[GlcNAc(b1-2)Man(a1-6)]Man(b1-4)GlcNAc(b1-4)GlcNAc
# Outline: as §1
# [31] = target: Neu5Ac(a2-6)Gal(b1-4)GlcNAc(b1-2)Man(a1-3)[GlcNAc(b1-4)][Neu5Ac(a2-6)Gal(b1-4)GlcNAc(b1-2)Man(a1-6)]Man(b1-4)GlcNAc(b1-4)GlcNAc
# Outline: as §1
# [32] = target: Neu5Ac(a2-6)Gal(b1-4)GlcNAc(b1-2)Man(a1-3)[Man(a1-6)]Man(b1-4)GlcNAc(b1-4)GlcNAc
# Outline: as §1
# [33] = target: Neu5Ac(a2-6)Gal(b1-4)GlcNAc(b1-2)Man(a1-3)[Neu5Ac(a2-3)Gal(b1-4)GlcNAc(b1-2)Man(a1-6)]Man(b1-4)GlcNAc(b1-4)GlcNAc
# Outline: as §1
# [34] = target: Neu5Ac(a2-6)Gal(b1-4)GlcNAc(b1-2)Man(a1-3)[Neu5Ac(a2-6)Gal(b1-4)GlcNAc(b1-2)Man(a1-6)]Man(b1-4)GlcNAc(b1-4)GlcNAc
# Outline: as §1
# [35] = target: Neu5Ac(a2-6)Gal(b1-4)GlcNAc(b1-2)Man(a1-3)[Neu5Ac(a2-6)Gal(b1-4)GlcNAc(b1-2)Man(a1-6)]Man(b1-4)GlcNAc(b1-4)[Fuc(a1-6)]GlcNAc
# Outline: as §1
# [36] = target: Neu5Ac(a2-6)Gal(b1-4)GlcNAc(b1-2)Man(a1-6)Man(b1-4)GlcNAc(b1-4)GlcNAc
# Outline: as §1
# [37] = target: Neu5Ac(a2-6)Gal(b1-4)GlcNAc(b1-2)Man(a1-6)[Gal(b1-4)GlcNAc(b1-2)Man(a1-3)]Man(b1-4)GlcNAc(b1-4)GlcNAc
# Outline: as §1
# [38] = target: Neu5Ac(a2-6)Gal(b1-4)GlcNAc(b1-2)Man(a1-6)[GlcNAc(b1-2)Man(a1-3)]Man(b1-4)GlcNAc(b1-4)GlcNAc
# Outline: as §1
# [39] = target: Neu5Ac(a2-6)Gal(b1-4)GlcNAc(b1-2)Man(a1-6)[Man(a1-3)]Man(b1-4)GlcNAc(b1-4)GlcNAc
# Outline: as §1
# [40] = target: Neu5Ac(a2-6)Gal(b1-4)GlcNAc(b1-2)[Neu5Ac(a2-6)Gal(b1-4)GlcNAc(b1-4)]Man(a1-3)[GlcNAc(b1-4)][Neu5Ac(a2-6)Gal(b1-4)GlcNAc(b1-2)[Neu5Ac(a2-6)Gal(b1-4)GlcNAc(b1-6)]Man(a1-6)]Man(b1-4)GlcNAc(b1-4)GlcNAc
# Outline: as §1
# [41] = target: Neu5Ac(a2-6)Gal(b1-4)GlcNAc(b1-2)[Neu5Ac(a2-6)Gal(b1-4)GlcNAc(b1-4)]Man(a1-3)[GlcNAc(b1-4)][Neu5Ac(a2-6)Gal(b1-4)GlcNAc(b1-4)Man(a1-6)]Man(b1-4)GlcNAc(b1-4)GlcNAc
# Outline: as §1
# [42] = target: Neu5Ac(a2-6)Gal(b1-4)GlcNAc(b1-2)[Neu5Ac(a2-6)Gal(b1-4)GlcNAc(b1-6)]Man(a1-6)[Neu5Ac(a2-6)Gal(b1-4)GlcNAc(b1-2)Man(a1-3)][GlcNAc(b1-4)]Man(b1-4)GlcNAc(b1-4)GlcNAc
# Outline: as §1
# [43] = target: Neu5Ac(a2-6)Gal(b1-4)GlcNAc(b1-3)Gal(b1-3)GlcNAc
# Outline: as §1
# [44] = target: Neu5Ac(a2-6)Gal(b1-4)GlcNAc(b1-3)Gal(b1-4)GlcNAc
# Outline: as §1
# [45] = target: Neu5Ac(a2-6)Gal(b1-4)GlcNAc(b1-3)Gal(b1-4)GlcNAc(b1-2)Man(a1-3)[Neu5Ac(a2-6)Gal(b1-4)GlcNAc(b1-3)Gal(b1-4)GlcNAc(b1-2)Man(a1-6)]GalNAc
# Outline: as §1
binder,measurement,setting,value
B1,glycan array binding signal (z-score),[1],-0.234
same,glycan array binding signal (z-score),[2],-0.276
same,glycan array binding signal (z-score),[3],-0.241
same,glycan array binding signal (z-score),[4],-0.281
same,glycan array binding signal (z-score),[5],-0.262
same,glycan array binding signal (z-score),[6],-0.266
same,glycan array binding signal (z-score),[7],-0.294
same,glycan array binding signal (z-score),[8],-0.253
same,glycan array binding signal (z-score),[9],-0.236
same,glycan array binding signal (z-score),[10],-0.274
same,glycan array binding signal (z-score),[11],-0.187
same,glycan array binding signal (z-score),[12],-0.2
same,glycan array binding signal (z-score),[13],-0.168
same,glycan array binding signal (z-score),[14],-0.264
same,glycan array binding signal (z-score),[15],-0.286
same,glycan array binding signal (z-score),[16],-0.281
same,glycan array binding signal (z-score),[17],-0.301
same,glycan array binding signal (z-score),[18],-0.268
same,glycan array binding signal (z-score),[19],-0.253
same,glycan array binding signal (z-score),[20],-0.284
same,glycan array binding signal (z-score),[21],-0.134
same,glycan array binding signal (z-score),[22],-0.268
same,glycan array binding signal (z-score),[23],-0.254
same,glycan array binding signal (z-score),[24],-0.203
same,glycan array binding signal (z-score),[25],-0.254
same,glycan array binding signal (z-score),[26],-0.26
same,glycan array binding signal (z-score),[27],-0.264
same,glycan array binding signal (z-score),[28],-0.258
same,glycan array binding signal (z-score),[29],-0.238
same,glycan array binding signal (z-score),[30],-0.268
same,glycan array binding signal (z-score),[31],-0.266
same,glycan array binding signal (z-score),[32],-0.247
same,glycan array binding signal (z-score),[33],-0.261
same,glycan array binding signal (z-score),[34],-0.225
same,glycan array binding signal (z-score),[35],-0.223
same,glycan array binding signal (z-score),[36],-0.252
same,glycan array binding signal (z-score),[37],-0.178
same,glycan array binding signal (z-score),[38],-0.281
same,glycan array binding signal (z-score),[39],-0.273
same,glycan array binding signal (z-score),[40],-0.294
same,glycan array binding signal (z-score),[41],-0.276
same,glycan array binding signal (z-score),[42],-0.265
same,glycan array binding signal (z-score),[43],-0.137
same,glycan array binding signal (z-score),[44],-0.269
same,glycan array binding signal (z-score),[45],-0.172

# Source: the supplement of paper PMC8728848
